# Assay results taken from PMC7819943, “Rice protein-binding microarrays: a tool to detect cis-acting elements near promoter regions in rice”.
# The list shows a part of the results.
# Molecular target: T1, OsWOX13 (Oryza sativa, UniProt Q5QMM3 1-267)
# T1 sequence: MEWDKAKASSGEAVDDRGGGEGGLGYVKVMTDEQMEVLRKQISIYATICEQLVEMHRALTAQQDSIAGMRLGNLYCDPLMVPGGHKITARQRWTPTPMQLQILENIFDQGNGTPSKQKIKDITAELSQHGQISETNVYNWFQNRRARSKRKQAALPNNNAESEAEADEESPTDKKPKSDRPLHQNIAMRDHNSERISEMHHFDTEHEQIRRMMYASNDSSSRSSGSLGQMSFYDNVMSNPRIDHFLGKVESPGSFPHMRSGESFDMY
# Assay: protein-binding microarray (RPBM); PBS, 2% BSA, 51.3 ng/ul salmon testes DNA, 50 uM zinc acetate, 200 nM TF, 25 C, 1 h; high values mean tight binding
# Settings: protein: recombinant; tags: N-terminal polyhistidine and DsRed monomer fusion (pET32a); label: CyDye5-dUTP incorporated in the synthesized complementary strand; 3' TTTTT single-stranded linker to array surface; dsDNA, one strand shown
# Procedure, shortened: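 In PBS with 2% BSA, salmon testes DNA and 50 µM zinc acetate, 200 nM protein was incubated on a custom Agilent array at 25 °C for 1 h and then washed off. The array had been made double-stranded by primer extension with Cy5-dUTP and blocked with 2% BSA. The proteins were transcription factors fused N-terminally to polyhistidine and DsRed, expressed in E. coli BL21-CodonPlus and purified on Ni–NTA. The binding signal is per-feature fluorescence intensity (arbitrary units) from an Axon 4000B scanner.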
row,Sequence,binding signal
1,GATTCTATCAGTTGGAAAATTGACTAAAATTTTAAGAAAACGGAGTCACCTAGTGCAG,14800 fluorescence intensity (a.u.)
2,GTTAATTAAGAAATAAGCACGGAATAAGACAAGCATATAACGGAGTCACCTAGTGCAG,5840 fluorescence intensity (a.u.)
3,TTAGATTAGATAATTATGAATGAGTATAAATGCTTCTGCTCGGAGTCACCTAGTGCAG,37300 fluorescence intensity (a.u.)
4,CTACAATCATGTATTGGTTAATTGGGTGCATGCATGTATGCGGAGTCACCTAGTGCAG,25500 fluorescence intensity (a.u.)
5,TGATTGATATATGGTTACATGTCTTTAGTTGTATATGAGTCGGAGTCACCTAGTGCAG,15100 fluorescence intensity (a.u.)
6,TTTGTTAAATTTCTCAATTGATTCATAATTCTTTATTAGCCGGAGTCACCTAGTGCAG,10300 fluorescence intensity (a.u.)
7,AGTCAATTTAATAGCCAATTCATACAATATTTACCTACAACGGAGTCACCTAGTGCAG,15700 fluorescence intensity (a.u.)
8,CAAATTAATAATCAATTTATACAATAGTTATCTATAAATACGGAGTCACCTAGTGCAG,20000 fluorescence intensity (a.u.)
9,TACTTAATTAATCATGTGTTAAAAGGCTGCTCCGTTTTGCCGGAGTCACCTAGTGCAG,40700 fluorescence intensity (a.u.)
10,CGCCGTCGTCATCATTTGTCAATCAGTGACAGTCACGAGACGGAGTCACCTAGTGCAG,25000 fluorescence intensity (a.u.)
11,CCAATAATTTCCTTTTCCCATAAGTTAAAGCTAAGCATTCCGGAGTCACCTAGTGCAG,5450 fluorescence intensity (a.u.)
12,TTAAGATGATAGGTTGTTGGATTGAAATATGCCTATCAAACGGAGTCACCTAGTGCAG,15800 fluorescence intensity (a.u.)
13,AATCAATCCATTAATATTTAACATGATCAGGCATTAGTCGCGGAGTCACCTAGTGCAG,23700 fluorescence intensity (a.u.)
14,CCCATTAGAATTGATTGTGTTTACAGGGACTTGTATAAAACGGAGTCACCTAGTGCAG,10100 fluorescence intensity (a.u.)
15,CCATGTTTCTATTACCGTTAATTAGGATAATAGTACGAATCGGAGTCACCTAGTGCAG,14400 fluorescence intensity (a.u.)
16,GCATCGAAGATTGAAGCACTCAGTAGTCAGTATAGGTTATCGGAGTCACCTAGTGCAG,4430 fluorescence intensity (a.u.)
17,GTTCAGATTAACAGTAATTAAAATAATGCAACCGTGGTGCCGGAGTCACCTAGTGCAG,29500 fluorescence intensity (a.u.)
18,TAACCTACTGTCAATATAATTGATCAGGTCACTGAATTGACGGAGTCACCTAGTGCAG,13700 fluorescence intensity (a.u.)
19,CCGATAGATGGTGATTGAGATTTTAGAGGCACACTTCTGCCGGAGTCACCTAGTGCAG,45800 fluorescence intensity (a.u.)
20,TAATGTGAATGATGATTGTATAGGGTGCTGTACATTCCTTCGGAGTCACCTAGTGCAG,5000 fluorescence intensity (a.u.)
21,TGAAATTTCATCCATCAATTGGAGTGCAACTTGTAATAGGCGGAGTCACCTAGTGCAG,13100 fluorescence intensity (a.u.)

row,Sequence,binding signal
1,ACTTGCTAAATTGCTAAATGAGGATTTAGCAAGTGGATGTCGGAGTCACCTAGTGCAG,13500 fluorescence intensity (a.u.)
2,ATTTGATCAAATTTTATTTTAAAATTCATATAATTTCGGACGGAGTCACCTAGTGCAG,7550 fluorescence intensity (a.u.)
3,GGCTTTAATTGATCACTATGAATACTTGGCTTGTTGTCATCGGAGTCACCTAGTGCAG,49500 fluorescence intensity (a.u.)
4,ATCCGATTAATTAATTTGATTTAATGTAATGTAATTAGGGCGGAGTCACCTAGTGCAG,64600 fluorescence intensity (a.u.)
5,TTGACAAAATTTTGGTAAAATATGGTTGTTTGGTTTGTTTCGGAGTCACCTAGTGCAG,5940 fluorescence intensity (a.u.)
6,TAAATTTAATTAGAGATTTGTTTAAATAATTTAAGACTAACGGAGTCACCTAGTGCAG,14200 fluorescence intensity (a.u.)
7,AAATTAATTATAAATATTAAACGTAGACTATTAATAAAACCGGAGTCACCTAGTGCAG,15600 fluorescence intensity (a.u.)
8,CTAATTGGCTGACGCCACAACTCCCACTTCGCCACCCTCACGGAGTCACCTAGTGCAG,32700 fluorescence intensity (a.u.)
9,GCTGTGATTTCTCATCCAACACAACATTATGCCATCACTACGGAGTCACCTAGTGCAG,5790 fluorescence intensity (a.u.)
10,AGCGGTGTGACATATAAACTGATTAGTAACCGGTGGTGTGCGGAGTCACCTAGTGCAG,21300 fluorescence intensity (a.u.)
11,ATTAATTAATTAATTAAATGCGGTGAGCAATAATGATTAACGGAGTCACCTAGTGCAG,40900 fluorescence intensity (a.u.)
12,ATAACTAATTACACAGATTGCGACTAATTTGCGAGACGAACGGAGTCACCTAGTGCAG,45700 fluorescence intensity (a.u.)
13,ATGATATATAAAATATAAATTACTCCTTTCCAATCCTAAGCGGAGTCACCTAGTGCAG,3220 fluorescence intensity (a.u.)
14,TGGCATAATGGTAATTAATAATGATAGTGATAGTAGTACGCGGAGTCACCTAGTGCAG,12900 fluorescence intensity (a.u.)
15,GAATAATTAGGTGCACCTGCGTCTTGCTGGGGATCTAAAGCGGAGTCACCTAGTGCAG,5730 fluorescence intensity (a.u.)
16,AATTCATTCAAAATCAATCAAAATTTCAAATAATTTCGTTCGGAGTCACCTAGTGCAG,15200 fluorescence intensity (a.u.)
17,GCGTAATGATTAATGTTAGGACATGTCTCTAGACGGATGACGGAGTCACCTAGTGCAG,28200 fluorescence intensity (a.u.)
18,CCAAACTAGTACAATTTTCCATCAAGATAACGACGAACGCCGGAGTCACCTAGTGCAG,3690 fluorescence intensity (a.u.)
19,TTTCTATTCAATTATCGCCTAACCATAGTTTATGTTTACTCGGAGTCACCTAGTGCAG,11400 fluorescence intensity (a.u.)
20,AATTTAAATAATTATTTATTCTTTTCATGTCATTTGATTCCGGAGTCACCTAGTGCAG,20100 fluorescence intensity (a.u.)
21,TCTAAATTTGCGCAACCTCTCATGCCACTCTCCGTCAGTTCGGAGTCACCTAGTGCAG,7780 fluorescence intensity (a.u.)
